The text below walks through data of the supplement of paper PMC4466236.

Whole data set: some 33,000 sequences, median “E-score (dimensionless, -0.5 to 0.5)” near -0.058, cut for the highest 2% near 0.35. This is one part of the list.

For the assay, the system named is MvaT. As to the kind of experiment: PBM 8-mer E-score (mean of HK and ME arrays) (E-score (dimensionless, -0.5 to 0.5)); higher = stronger relative binding preference; most listed sequences are background and not binding sites. Put shortly: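 Full-length P. aeruginosa MvaT carrying an N-terminal glutathione S-transferase tag was tested by protein binding microarray following a previously described protocol. Two universal double-stranded 60-mer arrays, ME and HK, were used, each with a constant 25-mer primer region and a variable 35-mer region covering all 8-mers. The rank-based E-score is the mean of the two arrays, parsed with a custom script. Its range runs from -0.5 to 0.5 for each 8-mer.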
Regarding GACTCTAC, the “PBM 8-mer E-score” value is -0.0621. Consider AGACCCTC, for which the “PBM 8-mer E-score” value is -0.3. In the case of CCCTTAAC, the “PBM 8-mer E-score” value was -0.0248.

With ATCACTTC, the “PBM 8-mer E-score” value was -0.0393. As for CATTCACG, the figure is -0.231. For GGTGTGGA the value was -0.0873; for GGACCTAA, -0.0894. For CGTGGAAG the value was -0.142; for CGCCTTAA, 0.104; for GGGGGACA, -0.175. Consider CGCCGTGA, for which the “PBM 8-mer E-score” value was -0.208. For CACGGGGC the value was -0.308; for AGAGGTCA, -0.266.

With CGCCATGC, the “PBM 8-mer E-score” value is -0.26. As to GGGTAACA, the “PBM 8-mer E-score” value came out at 0.134.

CACGCGTC: the “PBM 8-mer E-score” value was -0.0566. As for CCTAGTAC, the figure is -0.143. As for CTGCACCA, the figure is 0.0109; as for CCAGGCAA, -0.103.

Regarding GTGGTGAA, the “PBM 8-mer E-score” value is 0.0236. In the case of TGCAACCA, the “PBM 8-mer E-score” value is -0.00824. For CCTGGACA the value was -0.213; for CTCATGCC, -0.304; for ACGACGGG, -0.146.

With CTTTTGTA, the “PBM 8-mer E-score” value is 0.198.

As to AGCGAGAC, the “PBM 8-mer E-score” value is -0.104. As for GGTTATCA, the figure is 0.155; as for AACTTTGT, 0.257. As for CTTCTGGC, the “PBM 8-mer E-score” value is -0.158.

Turning to ATTCCCCA, the “PBM 8-mer E-score” value is -0.0441. For CAGTAACC the value was -0.0434; for CACGGGCA, -0.18; for CATTGAGA, -0.108. As for GGATTCCC, the figure is -0.207.

As for AGCAAACA, the “PBM 8-mer E-score” value was 0.0165.

In the case of CAGCGTCA, the “PBM 8-mer E-score” value was -0.176. As for CCAGGTCA, the figure is -0.141; as for GGGTTAAC, 0.101. For CCTCTTAC the value was -0.199; for TGGCTCAA, 0.0143; for AATCTGAT, 0.13. For CATTGCGA the value was 0.0384; for AGTTCCTG, -0.0781; for CGTTCAAA, 0.0772. Consider AACCATTG, for which the “PBM 8-mer E-score” value was -0.0493. For ATCCTTGC the value was -0.157. For CAGAATGA the value was 0.0253; for GAAATGAA, 0.17; for CCAGAACC, -0.0994. As for CCAAAGCA, the figure is -0.197. On to AATTACCC, for which the “PBM 8-mer E-score” value came to 0.241. As for CGACGAAG, the figure is -0.171. For CTATAGAC the value was -0.0011; for GTGTAGAA, -0.0558; for AGCTTGGG, -0.149. As for GGTTTGCA, the figure is 0.103; as for CCCTAGCA, -0.151; as for GCTCTGCC, -0.371. On to ACTACCTA, for which the “PBM 8-mer E-score” value came out at 0.00906. As for CCCGAAGA, the figure is -0.116; as for CCAAACGA, 0.00171; as for ATGGGCAG, -0.044.

GCATCCGA: the “PBM 8-mer E-score” value is -0.257.

Consider AGTCGACC, for which the “PBM 8-mer E-score” value is -0.128. As for TACGGCCA, the figure is -0.0792. As for GCGAGAAC, the figure is -0.0686. For ACTTAGCT, the “PBM 8-mer E-score” value stood at 0.112. With ATCTGTAA, the “PBM 8-mer E-score” value is 0.165. As for AACTAACG, the figure is 0.265; as for ACCTGTCT, -0.217.

Consider ACAGCACA, for which the “PBM 8-mer E-score” value is -0.145. For CGGCTTTA the value was -0.111.

In the case of GCCCCGCA, the “PBM 8-mer E-score” value is -0.208.

Take ACACCCCG: the “PBM 8-mer E-score” value was -0.143.

As to GCCTAGGA, the “PBM 8-mer E-score” value is -0.264. As for CAATTGAG, the “PBM 8-mer E-score” value was found to be 0.0707. As for CTGCTTGC, the figure is -0.172; as for ATCTATCG, -0.126; as for ATAACTGC, 0.286. For AGCAAGTC the value was -0.0541; for ACGGAGCT, -0.247. For ATTTTCTG the value was 0.031; for AAGCCCCA, -0.191; for CAAGAGAA, -0.0706.

Turning to ACGACGTC, the “PBM 8-mer E-score” value was -0.145. With CGTACTGA, the “PBM 8-mer E-score” value was -0.132. As for CGGACTGA, the figure is -0.29. For GTAACACA the value was 0.179. For AACAGTAG the value was 0.0539; for CGCCCCTA, -0.147.

In the case of AAAGTCGC, the “PBM 8-mer E-score” value stood at 0.107. For AATCAGAG the value was -0.144. As for GGACTAAA, the “PBM 8-mer E-score” value came to 0.0564.

With CGATCGGC, the “PBM 8-mer E-score” value was -0.116. For CACACCGC the value was -0.0177; for AACATAGG, 0.125. For TAAACTGA the value was 0.205; for AGTAAGAG, -0.0127; for ACGTCGGC, -0.331.

Take CCTCCAAA: the “PBM 8-mer E-score” value is -0.246. For GCGTCACA the value was -0.0519; for ACCTATTC, -0.14. With AAAGGCTA, the “PBM 8-mer E-score” value was -0.0155. As for ACCGCACA, the figure is -0.0584; as for AAGTCCGG, -0.181; as for GATTCTAA, 0.108. For AAATCGGA the value was -0.169; for GTCATTGA, 0.0278; for CCTTTGCA, -0.118.

With GCTAAGTA, the “PBM 8-mer E-score” value was 0.0978.
